From article PMC6212790
This is one part of the list. At the low end of the ranking, values are background and their order means little.

molecular target: T1, GST-Rok (full length) (UniProt O34857); assay: protein binding microarray; settings: Rok is a gene silencer of Bacillus subtilis; high values mean tight binding; most listed sequences are background and not binding sites; double strand, one strand shown;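 also: rank score from −0.5 (least bound) to 0.5 (best bound)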
T1 sequence: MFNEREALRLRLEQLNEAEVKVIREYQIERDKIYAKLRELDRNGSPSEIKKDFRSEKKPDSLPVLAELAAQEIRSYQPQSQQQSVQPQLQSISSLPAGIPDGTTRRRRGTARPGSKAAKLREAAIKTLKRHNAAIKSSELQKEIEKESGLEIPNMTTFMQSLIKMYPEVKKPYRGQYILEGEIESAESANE

| Sequence | binding signal |
| --- | --- |
| CTGAACTC | 0.0655 E-score |
| ATGTGTAC | 0.115 E-score |
| CTAGTGTA | 0.228 E-score |
| GTAGTGGA | 0.118 E-score |
| CGGAACGA | 0.0202 E-score |
| CGTAATCA | -0.0379 E-score |
| AGATAGGA | 0.204 E-score |
| CGCGCTTA | -0.0214 E-score |
| AGGGGTGG | -0.292 E-score |
| GGTTGGTA | 0.109 E-score |
| GAGTGGAC | -0.094 E-score |
| CTACTCAC | 0.0984 E-score |
| ATAGGAGA | 0.116 E-score |
| GCCCTCCA | -0.391 E-score |
| CAGTCTGC | -0.137 E-score |
| GCGTCGGA | -0.312 E-score |
| AAAACATG | 0.101 E-score |
| TAGGAGGA | -0.202 E-score |
| AACCACTC | 0.047 E-score |
| TAGACGCA | -0.0282 E-score |
| ATCGTGTC | -0.0601 E-score |
| ACGCTCCC | -0.245 E-score |
| CGACTTTA | -0.0687 E-score |
| TACCTTCA | -0.0871 E-score |
| AACGTCAC | -0.0864 E-score |

| Sequence | binding signal |
| --- | --- |
| ATAATCGC | 0.244 E-score |
| AGATAAAT | 0.265 E-score |
| AAATCCTC | -0.027 E-score |
| GACCTGAA | 0.0667 E-score |
| GCAGGGAA | -0.158 E-score |
| ACTACTAA | 0.386 E-score |
| CTTGATTC | 0.0259 E-score |
| CATTCGGC | -0.0951 E-score |
| CGCGCAGC | -0.387 E-score |
| ACTGTATC | 0.172 E-score |
| AAGCTCTC | -0.146 E-score |
| CTTAGCGC | 0.101 E-score |
| GCTATACA | 0.201 E-score |
| AACACTCC | -0.0259 E-score |
| ACTCTGAT | -0.0267 E-score |
| CGCTTCAC | -0.21 E-score |
| CGCTAATC | 0.123 E-score |
| CTATTGCA | 0.243 E-score |
| CATCTCCA | 0.235 E-score |
| ACTGCTCA | -0.00811 E-score |
| CTGACGTA | -0.0763 E-score |
| CGTTCCGC | -0.323 E-score |
| CTACGCAG | -0.118 E-score |
| ACGGAATG | 0.193 E-score |
| AAGTCTAC | 0.0289 E-score |

| Sequence | binding signal |
| --- | --- |
| GGCATGTA | 0.203 E-score |
| GTCTCCTA | -0.0431 E-score |
| CTATGAAC | -0.0239 E-score |
| CGGACTTA | -0.176 E-score |
| ACTACAGC | 0.266 E-score |
| GTGTCAAA | -0.0635 E-score |
| GCATACGC | -0.114 E-score |
| CAGGTAAA | 0.0687 E-score |
| AATCGAGA | 0.0905 E-score |
| CTTTTCCA | -0.058 E-score |
| CGGGTGGC | -0.0716 E-score |
| AGGTTAAG | -0.12 E-score |
| CATCCCGA | -0.0162 E-score |
| ATGCGATA | 0.138 E-score |
| CTTGTAGC | 0.0768 E-score |
| AAAGGGGA | -0.229 E-score |
| CCTCCGAG | -0.367 E-score |
| AACTAGTT | 0.441 E-score |
| GACATCGA | 0.00894 E-score |
| ATGGATTA | 0.209 E-score |
| CCGGGGAG | -0.421 E-score |
| CACGCCTC | -0.199 E-score |
| ACTCAAGG | -0.109 E-score |
| GGATACTA | 0.211 E-score |
| GGCTTCCA | -0.137 E-score |

| Sequence | binding signal |
| --- | --- |
| GGTCTAAA | 0.0268 E-score |
| ACTGAATG | -0.0244 E-score |
| ATATAGGG | -0.0461 E-score |
| GTTTCGCA | -0.148 E-score |
| ATCTAAGC | 0.0122 E-score |
| CAGTGGGA | -0.294 E-score |
| CTATGCAC | 0.0893 E-score |
| AAACCAGG | -0.226 E-score |
| CCAGAAAC | -0.128 E-score |
| CCGCTCGC | -0.206 E-score |
| GAAGGACC | -0.0427 E-score |
| CATCTGCA | -0.0265 E-score |
| ACTCTGGC | -0.291 E-score |
| AACTAGAG | 0.107 E-score |
| CGCGCATA | 0.139 E-score |
| CGGCAGAG | -0.303 E-score |
| AAGAGTTA | 0.0655 E-score |
| CTAGTTCC | 0.188 E-score |
| AAAGAATG | 0.205 E-score |
| TCACGTCA | 0.0091 E-score |
| GTCCTCAA | -0.0773 E-score |
| ACAAGATC | 0.0361 E-score |
| CGCATCTC | -0.177 E-score |
| GGTGAAAA | -0.000164 E-score |
| TCCTTCCA | -0.154 E-score |

| Sequence | binding signal |
| --- | --- |
| CACCGAAA | 0.0776 E-score |
| CCCTGAGG | -0.352 E-score |
| AGGCACAG | -0.137 E-score |
| CCATCCTC | -0.27 E-score |
| GTGTGGCA | -0.11 E-score |
| ATAAAGCA | -0.0165 E-score |
| CTCCAACC | -0.263 E-score |
| AGGGCAAC | -0.157 E-score |
| CAGCAATG | -0.0438 E-score |
| ATCCTATG | 0.106 E-score |
| GAGACGGC | -0.326 E-score |
| CAGTTATA | 0.288 E-score |
| ATCTATCG | 0.334 E-score |
| GGATCCAA | -0.0352 E-score |
| ACGCATCT | 0.0561 E-score |
| ATGTGAGC | -0.055 E-score |
| CTACACGC | 0.209 E-score |
| CGTAGTCC | -0.0635 E-score |
| ACATCAGG | 0.129 E-score |
| ATCAAACC | -0.0337 E-score |
| AATACAAG | 0.234 E-score |
| CACTAGAA | 0.224 E-score |
| GTCCTTGA | -0.293 E-score |
| CAGCTAGA | 0.0847 E-score |
| AAGCTTCA | -0.153 E-score |

| Sequence | binding signal |
| --- | --- |
| ATGAGAAG | 0.0915 E-score |
| GAAGGCCA | -0.36 E-score |
| AGCCACCG | -0.0803 E-score |
| CTATCACA | 0.234 E-score |
| GGCCGCTA | -0.0662 E-score |
| ACTCTAGC | -0.0939 E-score |
| CTTACTAC | 0.169 E-score |
| CACGTGAG | -0.136 E-score |
| CTGCCGGA | -0.123 E-score |
| TACTTCCA | 0.00573 E-score |
| ATTTCAAA | 0.0598 E-score |
| AAATGTTC | 0.156 E-score |
| CTGTCCTC | -0.249 E-score |
| TGGTTGAA | -0.0706 E-score |
| CTTGGTAA | -0.0712 E-score |
| AACCTCGC | -0.106 E-score |
| CGGGTGCA | -0.174 E-score |
| GGGTATTA | 0.0968 E-score |
| ATTTCGGA | 0.078 E-score |
| ACTCCAAA | -0.171 E-score |
| GTCCGACA | 0.0564 E-score |
| GACAGACC | -0.414 E-score |
| CGAATGAC | 0.0818 E-score |
| ATGTTTAC | 0.189 E-score |
| ATCCATAA | 0.16 E-score |

| Sequence | binding signal |
| --- | --- |
| AAAAACTT | -0.0545 E-score |
| ATACGGGC | -0.183 E-score |
| ATCCCCGG | -0.271 E-score |
| CTGTTTAC | -0.00986 E-score |
| AGACGCGG | -0.304 E-score |
| TATTAGCA | 0.185 E-score |
| AGTGTTAG | 0.118 E-score |
| AAAATAAG | 0.139 E-score |
| AGTGCTTA | -0.0692 E-score |
| AGTATGGC | 0.227 E-score |
| CTCGACTC | -0.114 E-score |
| ATAGGATA | 0.226 E-score |
| AAAACTAG | 0.334 E-score |
| ACCATAGG | 0.176 E-score |
| TTCCGAAA | 0.0338 E-score |
| ATCGGAAT | 0.127 E-score |
| ATGTTTCA | 0.158 E-score |
| AATCATTC | 0.145 E-score |
| AGCTGTGA | 0.0841 E-score |
| AATGAACT | 0.0863 E-score |
| CGGCCCCC | -0.373 E-score |
| CGTGCATC | -0.105 E-score |
| CTTAGGAA | -0.18 E-score |
| AGGCTCAC | -0.184 E-score |
| GAAGTCTC | -0.271 E-score |

| Sequence | binding signal |
| --- | --- |
| CTATTTCC | 0.18 E-score |
| AAGACACA | 0.0109 E-score |
| GGGTGCCA | -0.243 E-score |
| CGCCCTTA | -0.158 E-score |
| ATCATATA | 0.215 E-score |
| CAAATCGG | -0.0828 E-score |
| GGTAGTGA | 0.156 E-score |
| ATGACGGC | -0.119 E-score |
| ACCGGTGG | -0.196 E-score |
| AGAATTGC | 0.132 E-score |
| ATCCGACG | -0.0128 E-score |
| GATAGGGC | -0.0329 E-score |
| ACGCTTAC | -0.00582 E-score |
| GGCAAGTA | -0.00745 E-score |
| CCAAGAGA | -0.0918 E-score |
| CTGGGTTA | -0.143 E-score |
| CTGTGCCA | -0.131 E-score |
| GTGTGGTA | 0.213 E-score |
| GGGTACCC | -0.368 E-score |
| AGAGCGAG | -0.0881 E-score |
| GTGTCACA | 0.0367 E-score |
| CTTCCTGA | 0.0315 E-score |
| AATGGATG | 0.0828 E-score |
| AAGCTGTA | 0.0695 E-score |
| GACGTAAA | 0.0779 E-score |

| Sequence | binding signal |
| --- | --- |
| ATCCTACA | 0.175 E-score |
| ACGGAACC | -0.00314 E-score |
| TACAGGGA | -0.148 E-score |
| CAACGTCA | 0.0363 E-score |
| ATCGTGGC | -0.0292 E-score |
| GATTTACC | 0.275 E-score |
| GAGACATA | -0.0183 E-score |
| CGCTCTGA | -0.0888 E-score |
| CATCACAA | 0.122 E-score |
| CGCATCGA | 0.0566 E-score |
| CTCAGACC | -0.297 E-score |
| AGGTGTGA | -0.0745 E-score |
| GCCTCCGC | -0.196 E-score |
| TATCGATA | 0.376 E-score |
| AGGCAACT | -0.0745 E-score |
| GGAAGGAA | -0.229 E-score |
| CGGCTATA | 0.0583 E-score |
| CCCGCAAA | -0.115 E-score |
| CCATATGG | -0.182 E-score |
